Consider 42 sequences from paper PMC7819943, “Rice protein-binding microarrays: a tool to detect cis-acting elements near promoter regions in rice”.

The other results are listed elsewhere or left out.

The target in this assay is T1, OsWOX13 (Oryza sativa, UniProt Q5QMM3 1-267).
T1 sequence: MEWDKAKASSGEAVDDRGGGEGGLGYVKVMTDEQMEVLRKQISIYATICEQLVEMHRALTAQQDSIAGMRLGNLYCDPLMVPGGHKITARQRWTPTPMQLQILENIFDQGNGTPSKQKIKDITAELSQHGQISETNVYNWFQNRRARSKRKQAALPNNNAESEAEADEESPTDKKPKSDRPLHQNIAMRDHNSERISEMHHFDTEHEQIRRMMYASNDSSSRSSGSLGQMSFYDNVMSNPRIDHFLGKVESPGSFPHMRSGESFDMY
The experiment in a line: protein-binding microarray (RPBM); PBS, 2% BSA, 51.3 ng/ul salmon testes DNA, 50 uM zinc acetate, 200 nM TF, 25 C, 1 h; high values mean tight binding. The conditions noted are these: protein: recombinant; tags: N-terminal polyhistidine and DsRed monomer fusion (pET32a); label: CyDye5-dUTP incorporated in the synthesized complementary strand; 3' TTTTT single-stranded linker to array surface; dsDNA, one strand shown. The essentials:
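Binding signal here means per-feature fluorescence intensity in arbitrary units. The values were read on an Axon 4000B scanner after a custom Agilent array, double-stranded by primer extension with Cy5-dUTP, was incubated with 200 nM protein at 25 °C for 1 h in PBS with 2% BSA, salmon testes DNA and 50 µM zinc acetate, then washed. The proteins were transcription factors with an N-terminal polyhistidine tag and DsRed, expressed in E. coli BL21-CodonPlus and purified on Ni–NTA.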
For “AACACAATGCTGCGTCAATTATACATATCTGTATGTCCATCGGAGTCACCTAGTGCAG”, the binding signal was 3690 fluorescence intensity (a.u.).
Regarding “ACGGCGGCGGATGTGATTGGTGTGTCCAACCACTTGCCCGCGGAGTCACCTAGTGCAG”, the binding signal is 9400 fluorescence intensity (a.u.).
Regarding “TTATAATCTAGATTAGAGGGACTAGCACCAGTAGTCGGCACGGAGTCACCTAGTGCAG”, the binding signal is 7440 fluorescence intensity (a.u.).
Under “CAGTCAAACATATGGAATTGACTATGATGAGACATTTGCACGGAGTCACCTAGTGCAG” stands 5380 fluorescence intensity (a.u.).
In the case of “TAAAATTACATATGTAATTTAGGGACTTACAATGTAAATGCGGAGTCACCTAGTGCAG”, the binding signal is 26500 fluorescence intensity (a.u.).
With “ATATGATTGCCAGAAAAGGGACGAATGAACGAAGAATATACGGAGTCACCTAGTGCAG”, the binding signal is 13400 fluorescence intensity (a.u.).
Regarding “CCTATATAAATTATCCGAGTACTAATACGTCGAATAAGGTCGGAGTCACCTAGTGCAG”, the binding signal was 3240 fluorescence intensity (a.u.).
Under “CACCCAATCACAATCCAACCCACGCCATTGCAACCAAATTCGGAGTCACCTAGTGCAG” stands 4130 fluorescence intensity (a.u.).
Under “TAATTAGATTTAATAAATTTGTTTTGCAGTTTACAGACAACGGAGTCACCTAGTGCAG” stands 22700 fluorescence intensity (a.u.); under “ACGGTGTGATTAATTACGTCGCGATCATGTTGTGCTAATCCGGAGTCACCTAGTGCAG”, 32500 fluorescence intensity (a.u.).
Under “CAAAAGTGTTCAATCAAATATGAAAATGAGTATAATGCAACGGAGTCACCTAGTGCAG” stands 6990 fluorescence intensity (a.u.); under “AATGCAATCAAAGAGACAATTAGATTGATCATTTATGTGTCGGAGTCACCTAGTGCAG”, 41000 fluorescence intensity (a.u.); under “ACTAAGTGCGTGATTGTTTCAGATTTGTTTGGGTTGCGGTCGGAGTCACCTAGTGCAG”, 19700 fluorescence intensity (a.u.).
Consider “GCTAATTAAATAACCTACCAGCTTATCACTACAGCTACAACGGAGTCACCTAGTGCAG”, for which the binding signal was 23300 fluorescence intensity (a.u.).
Under “AGCTCATCTGATTTGCATTTCAAGTCCAAAATTCCTTACTCGGAGTCACCTAGTGCAG” stands 5680 fluorescence intensity (a.u.); under “CGTTTCTGATTTGATTCTTCCAAATTTTGGGTTCCTGATTCGGAGTCACCTAGTGCAG”, 24800 fluorescence intensity (a.u.); under “TTAAAAGAAAACTCACATGATGATTTGCTTTAATTTAGTACGGAGTCACCTAGTGCAG”, 5520 fluorescence intensity (a.u.).
With “TATATATATATATATATATGAATATGGGCAATACTAGAAACGGAGTCACCTAGTGCAG”, the binding signal was 6640 fluorescence intensity (a.u.).
Take “ATGTAATTCTTAAAGTTAAATTAATATTAGTAGGATTGCTCGGAGTCACCTAGTGCAG”: the binding signal is 4410 fluorescence intensity (a.u.).
The same measure for “AGTAATTGCCTTTTGAATTAACTAACCAGGTGAATTTCCCCGGAGTCACCTAGTGCAG”: 39400 fluorescence intensity (a.u.); for “GTGATACATTGGTAAATTACCCCGTTTAAAATGAAAACATCGGAGTCACCTAGTGCAG”: 5260 fluorescence intensity (a.u.); for “TTCAATTTATGCACAATTACAAATTGTTTTCTTTAAGTTTCGGAGTCACCTAGTGCAG”: 7680 fluorescence intensity (a.u.).
In the case of “CTACTAATCACACCTCATCTGCGAAATATGAGATCCTACGCGGAGTCACCTAGTGCAG”, the binding signal was 11100 fluorescence intensity (a.u.).
Under “ATATATACATTACTACATATAATTGTTTCTGGGAAGTAGCCGGAGTCACCTAGTGCAG” stands 5370 fluorescence intensity (a.u.).
Take “CTGCTAATTTTATCGTCAGATCAAACTTAAAGCAAAGCAACGGAGTCACCTAGTGCAG”: the binding signal is 6360 fluorescence intensity (a.u.).
Under “ATTAATGTTAATGAATATCAATATGAATATGGGAAATGCTCGGAGTCACCTAGTGCAG” stands 5480 fluorescence intensity (a.u.); under “AAGCATGATTATTCAATTCGTCTTATGCAAGCAAAAGTGTCGGAGTCACCTAGTGCAG”, 12600 fluorescence intensity (a.u.).
The same measure for “TGGCGGATTGATCTGGAGGTGGGCTTGTTGGGGTTGCTGTCGGAGTCACCTAGTGCAG”: 14400 fluorescence intensity (a.u.); for “ATGATAGATTATTATAATCTATAAGCCAGATTAGTATAATCGGAGTCACCTAGTGCAG”: 44100 fluorescence intensity (a.u.); for “AGTGCTTGACTGCTTGGTTAGGAAGGAAATTAAAGTTGGGCGGAGTCACCTAGTGCAG”: 4730 fluorescence intensity (a.u.).
Under “TTTAATGGGAATATGAAACCGTGGCTTGATGTTGCGTTGACGGAGTCACCTAGTGCAG” stands 3890 fluorescence intensity (a.u.); under “AATAAATTTCAGACCAAAATTGATGGAATGCAGACAATATCGGAGTCACCTAGTGCAG”, 14300 fluorescence intensity (a.u.); under “ATAATTAGATGTGATATATTATAGTACAACGAATCTTGACCGGAGTCACCTAGTGCAG”, 40000 fluorescence intensity (a.u.).
With “AACGTATGAATGTCATTAATTAAGGGTGTGTGGTGAAATTCGGAGTCACCTAGTGCAG”, the binding signal was 4770 fluorescence intensity (a.u.).
Take “TGCTAAACTTTATCAAGGTTTTAATTTTGATAAAGATGGACGGAGTCACCTAGTGCAG”: the binding signal is 4050 fluorescence intensity (a.u.).
Regarding “TTCTTGTGAGATGCCAATCAATAACAAAATCGCAGTACAACGGAGTCACCTAGTGCAG”, the binding signal was 7600 fluorescence intensity (a.u.).
The same measure for “AGTAATTAAGGAGTCAATAATAAATCATACTATAGAAGTACGGAGTCACCTAGTGCAG”: 6530 fluorescence intensity (a.u.).
For the sequence “GCCCGGTGTTGATTGTGAGTGGCTCGGTGTTCGCCATCTCCGGAGTCACCTAGTGCAG”, the binding signal is 10100 fluorescence intensity (a.u.).
As for “TCCTGATTGTTCACAATTGTGCTAGTTCAAACAAGGCAAACGGAGTCACCTAGTGCAG”, the binding signal was 24800 fluorescence intensity (a.u.).
Regarding “TAGTTAATTTCTTAAGTACTACTTAATACAAAATTCCACTCGGAGTCACCTAGTGCAG”, the binding signal is 6340 fluorescence intensity (a.u.).
Under “TCTATAATTTAATAATTTATTAAATTTTAGAGAATTAAAACGGAGTCACCTAGTGCAG” stands 12000 fluorescence intensity (a.u.); under “TGATGATTAGCATCCCAACCAATCAGAAATTCTGAACATGCGGAGTCACCTAGTGCAG”, 47200 fluorescence intensity (a.u.).
